{"source": "the supplement of paper PMC3334620", "note": "Over roughly 33,000 sequences, “E-score (-0.5 to 0.5)” has its median near -0.017; the highest 2% begin near 0.3. This is one part of the list."}
{"target": "T1, Sut1 (UniProt P53032)", "T1 sequence": "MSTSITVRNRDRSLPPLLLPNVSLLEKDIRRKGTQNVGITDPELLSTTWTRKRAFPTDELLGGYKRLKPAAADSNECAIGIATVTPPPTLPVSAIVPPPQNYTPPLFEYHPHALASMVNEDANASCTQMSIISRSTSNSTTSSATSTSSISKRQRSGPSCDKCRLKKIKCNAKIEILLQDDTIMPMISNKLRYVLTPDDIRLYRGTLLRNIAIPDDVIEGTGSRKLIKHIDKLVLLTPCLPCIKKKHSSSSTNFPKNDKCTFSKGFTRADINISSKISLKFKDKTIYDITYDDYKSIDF", "test": "PBM E-score (8-mer binding enrichment) (E-score (-0.5 to 0.5)); higher = stronger / more preferred TF binding; most listed sequences are background and not binding sites", "settings": "protein concentration: 200 nM; construct: GST-full length", "experimental": "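Universal 'all 10-mer' protein binding microarrays (Agilent AMADID 015681) probed with GST-tagged S. cerevisiae TFs (full-length or DBD) made by in vitro transcription/translation (PURExpress), about 100-200 nM. Bound TF was detected with fluorescent anti-GST. Each ungapped 8-mer (which stands for itself and its reverse complement) is scored by the PBM enrichment score (E-score), a modified Wilcoxon-Mann-Whitney statistic from -0.5 to +0.5, computed with the Universal PBM Analysis Suite. Scale: above 0.35 generally sequence-specific binding.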"}
{"sequence": "AACTTCCT", "PBM E-score": 0.0824}
{"sequence": "CAGTAGAA", "PBM E-score": -0.0531}
{"sequence": "CTATTCTA", "PBM E-score": 0.223}
{"sequence": "AGAATATG", "PBM E-score": 0.137}
{"sequence": "GCCGTCAC", "PBM E-score": -0.0545}
{"sequence": "GATCCAAC", "PBM E-score": -0.00322}
{"sequence": "CGTTTACC", "PBM E-score": 0.0614}
{"sequence": "CTGAGCAG", "PBM E-score": -0.2}
{"sequence": "CTTACAAC", "PBM E-score": 0.196}
{"sequence": "AACGCCGC", "PBM E-score": -0.217}
{"sequence": "CCCTATAG", "PBM E-score": -0.203}
{"sequence": "GTAGTAAC", "PBM E-score": 0.0611}
{"sequence": "AAGAAGAC", "PBM E-score": 0.0584}
{"sequence": "GGACCGAC", "PBM E-score": 0.0958}
{"sequence": "CACAGTGG", "PBM E-score": -0.0778}
{"sequence": "CCCGATCA", "PBM E-score": -0.133}
{"sequence": "AACCCACA", "PBM E-score": 0.0844}
{"sequence": "CAGAATTC", "PBM E-score": 0.138}
{"sequence": "GACCTGGC", "PBM E-score": -0.208}
{"sequence": "GGGATAGA", "PBM E-score": -0.114}
{"sequence": "GATGTGCC", "PBM E-score": -0.183}
{"sequence": "AACATGGA", "PBM E-score": -0.0336}
{"sequence": "CGGCCCTC", "PBM E-score": -0.216}
{"sequence": "GGGATCAC", "PBM E-score": -0.338}
{"sequence": "AGTAACGG", "PBM E-score": 0.198}
{"sequence": "AGGAGTAT", "PBM E-score": -0.0966}
{"sequence": "CCGATAGC", "PBM E-score": 0.0526}
{"sequence": "AGATAGCC", "PBM E-score": -0.064}
{"sequence": "CCCGACGC", "PBM E-score": -0.175}
{"sequence": "ATCTTCTG", "PBM E-score": 0.12}
{"sequence": "CGCAGACC", "PBM E-score": -0.189}
{"sequence": "TACCCATA", "PBM E-score": -0.151}
{"sequence": "GCTAGCAC", "PBM E-score": -0.104}
{"sequence": "CATCCATA", "PBM E-score": -0.0827}
{"sequence": "GGGTGTGA", "PBM E-score": -0.145}
{"sequence": "CCTCCGCA", "PBM E-score": -0.205}
{"sequence": "GCATTGAC", "PBM E-score": -0.198}
{"sequence": "ACAATCGG", "PBM E-score": 0.259}
{"sequence": "CACAGGAA", "PBM E-score": 0.00605}
{"sequence": "ACTTAGCA", "PBM E-score": 0.0328}
{"sequence": "CCACCTCA", "PBM E-score": -0.227}
{"sequence": "AATCTCAA", "PBM E-score": 0.0555}
{"sequence": "AACACGAC", "PBM E-score": -0.0446}
{"sequence": "GGTGTTAC", "PBM E-score": -0.0536}
{"sequence": "GAGCTTCC", "PBM E-score": 0.279}
{"sequence": "ATGCTGGA", "PBM E-score": 0.0682}
{"sequence": "AGACAAAA", "PBM E-score": 0.0785}
{"sequence": "GCTCCTCC", "PBM E-score": -0.138}
{"sequence": "CACCGCAA", "PBM E-score": 0.178}
{"sequence": "AAGTGACA", "PBM E-score": 0.131}
{"sequence": "GCAGCGGA", "PBM E-score": 0.0776}
{"sequence": "GCACTCGC", "PBM E-score": -0.0684}
{"sequence": "ACTTTTTC", "PBM E-score": 0.123}
{"sequence": "CAGCCTCA", "PBM E-score": -0.125}
{"sequence": "AAAATAGC", "PBM E-score": 0.0485}
{"sequence": "AGTAACTG", "PBM E-score": 0.0218}
{"sequence": "AGCAAACT", "PBM E-score": 0.0398}
{"sequence": "ACGGACAA", "PBM E-score": 0.272}
{"sequence": "CGATCGCG", "PBM E-score": 0.0537}
{"sequence": "CGTGTTGC", "PBM E-score": -0.185}
{"sequence": "CGGTTCTC", "PBM E-score": -0.0227}
{"sequence": "CCGCTACG", "PBM E-score": -0.044}
{"sequence": "ACCTGTTG", "PBM E-score": -0.0722}
{"sequence": "GAGGCACC", "PBM E-score": -0.341}
{"sequence": "CAAGGGGC", "PBM E-score": -0.17}
{"sequence": "ACACAATG", "PBM E-score": 0.0741}
{"sequence": "TAATGACA", "PBM E-score": 0.12}
{"sequence": "ACATCCGA", "PBM E-score": 0.136}
{"sequence": "AAGACGCG", "PBM E-score": 0.0741}
{"sequence": "CACTTATC", "PBM E-score": -0.00811}
{"sequence": "ACTGGTAG", "PBM E-score": 0.0376}
{"sequence": "CAATTTAA", "PBM E-score": 0.317}
{"sequence": "CTGGGCAA", "PBM E-score": 0.00054}
{"sequence": "ATATTCAC", "PBM E-score": 0.172}
{"sequence": "GGCGTACA", "PBM E-score": -0.142}
{"sequence": "ACGACTTC", "PBM E-score": 0.0627}
{"sequence": "CCACGTCC", "PBM E-score": -0.248}
{"sequence": "CATTAGAC", "PBM E-score": -0.151}
{"sequence": "AGAGCGAA", "PBM E-score": 0.0259}
{"sequence": "GAGGGGTA", "PBM E-score": -0.286}
{"sequence": "GCTCATGA", "PBM E-score": -0.172}
{"sequence": "AGCGAGTA", "PBM E-score": 0.0674}
{"sequence": "GGATGGCC", "PBM E-score": -0.311}
{"sequence": "AGTGCCAA", "PBM E-score": -0.219}
{"sequence": "ACTGGCAC", "PBM E-score": -0.183}
{"sequence": "GATCTCAA", "PBM E-score": 0.0447}
{"sequence": "CTGAGACC", "PBM E-score": -0.314}
{"sequence": "GGGTTTAC", "PBM E-score": 0.0633}
{"sequence": "TATAAATA", "PBM E-score": 0.343}
{"sequence": "ATACCTAA", "PBM E-score": 0.274}
{"sequence": "ATACGCCG", "PBM E-score": -0.0434}
{"sequence": "AACCTGCA", "PBM E-score": 0.036}
{"sequence": "AACGGGCG", "PBM E-score": -0.159}
{"sequence": "AATACATA", "PBM E-score": 0.21}
{"sequence": "GGTTACAA", "PBM E-score": 0.176}
{"sequence": "AAAGCACA", "PBM E-score": 0.0274}
{"sequence": "AAACTAGC", "PBM E-score": -0.0714}
{"sequence": "GGATAAAC", "PBM E-score": 0.2}
{"sequence": "CGCAGGTC", "PBM E-score": -0.134}
{"sequence": "CCCCGTGA", "PBM E-score": 0.0534}
{"sequence": "GAGAATAA", "PBM E-score": 0.11}
{"sequence": "AAGAAATC", "PBM E-score": 0.0735}
{"sequence": "AATGGGGG", "PBM E-score": -0.271}
{"sequence": "AGTTCGAT", "PBM E-score": 0.181}
{"sequence": "AAGAAAGC", "PBM E-score": 0.126}
{"sequence": "ACAGCCAT", "PBM E-score": -0.174}
{"sequence": "ACGGTAAG", "PBM E-score": -0.00505}
{"sequence": "GCGGGTAC", "PBM E-score": -0.0833}
{"sequence": "ACAACACA", "PBM E-score": 0.00311}
